# Experimental data taken from the supplement of paper PMC8728848.
# Some of the results follow.
# Columns and labels:
# Assay in all cases: glycan array binding signal (z-score within array); higher = stronger binding
# Details in all cases: glycan notation: IUPAC condensed, linker removed
# Glc(b1-6)Glc = target: Glc(b1-6)Glc
# Summary of the method: (§1)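 Glycan array binding is given as a within-array Z-score, which can be read as non-binding when negative. The arrays, 3228 of them, came from the Consortium for Functional Glycomics database and were retained only where the protein sequence was available. Z-scores were averaged across arrays of the same protein sequence at different concentrations or buffers and across linkers.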
# GlcA(b1-3)Gal = target: GlcA(b1-3)Gal
# Summary of the method: as §1
# GlcA(b1-3)GlcNAc = target: GlcA(b1-3)GlcNAc
# Summary of the method: as §1
# GlcA(b1-6)Gal = target: GlcA(b1-6)Gal
# Summary of the method: as §1
# [1] = target: GlcA3S(b1-3)Gal(b1-4)GlcNAc(b1-2)Man
# Summary of the method: as §1
# [2] = target: GlcA3S(b1-3)Gal(b1-4)GlcNAc(b1-3)Gal(b1-4)Glc
# Summary of the method: as §1
# [3] = target: GlcNAc(a1-3)Gal(b1-4)GlcNAc
# Summary of the method: as §1
# [4] = target: GlcNAc(a1-4)Gal(b1-3)GlcNAc
# Summary of the method: as §1
# [5] = target: GlcNAc(a1-4)Gal(b1-4)GalNAc
# Summary of the method: as §1
# [6] = target: GlcNAc(a1-4)Gal(b1-4)GlcNAc
# Summary of the method: as §1
# [7] = target: GlcNAc(a1-4)Gal(b1-4)GlcNAc(b1-3)Gal(b1-4)Glc
# Summary of the method: as §1
# [8] = target: GlcNAc(a1-4)Gal(b1-4)GlcNAc(b1-3)Gal(b1-4)GlcNAc
# Summary of the method: as §1
# [9] = target: GlcNAc(a1-4)Gal(b1-4)GlcNAc(b1-3)Gal(b1-4)GlcNAc(b1-3)Gal(b1-4)GlcNAc
# Summary of the method: as §1
# [10] = target: GlcNAc(a1-4)Gal(b1-4)GlcNAc(b1-3)Gal(b1-4)[Fuc(a1-3)]GlcNAc(b1-3)Gal(b1-4)[Fuc(a1-3)]GlcNAc
# Summary of the method: as §1
# [11] = target: GlcNAc(a1-6)Gal(b1-4)GlcNAc
# Summary of the method: as §1
# [12] = target: GlcNAc(b1-2)Gal(b1-3)GalNAc
# Summary of the method: as §1
# [13] = target: GlcNAc(b1-2)Man(a1-3)[GlcNAc(b1-2)Man(a1-6)]Man(b1-4)GlcNAc(b1-4)GlcNAc
# Summary of the method: as §1
# [14] = target: GlcNAc(b1-2)Man(a1-3)[GlcNAc(b1-2)Man(a1-6)]Man(b1-4)GlcNAc(b1-4)[Fuc(a1-6)]GlcNAc
# Summary of the method: as §1
# [15] = target: GlcNAc(b1-2)Man(a1-3)[GlcNAc(b1-4)][GlcNAc(b1-2)Man(a1-6)]Man(b1-4)GlcNAc(b1-4)GlcNAc
# Summary of the method: as §1
# [16] = target: GlcNAc(b1-2)Man(a1-3)[GlcNAc(b1-4)][GlcNAc(b1-2)Man(a1-6)]Man(b1-4)GlcNAc(b1-4)[Fuc(a1-6)]GlcNAc
# Summary of the method: as §1
# [17] = target: GlcNAc(b1-2)[GlcNAc(b1-4)]Man(a1-3)[GlcNAc(b1-2)Man(a1-6)]Man(b1-4)GlcNAc(b1-4)GlcNAc
# Summary of the method: as §1
# [18] = target: GlcNAc(b1-2)[GlcNAc(b1-4)]Man(a1-3)[GlcNAc(b1-4)][GlcNAc(b1-2)Man(a1-6)]Man(b1-4)GlcNAc(b1-4)GlcNAc
# Summary of the method: as §1
# [19] = target: GlcNAc(b1-2)[GlcNAc(b1-4)]Man(a1-3)[GlcNAc(b1-4)][GlcNAc(b1-2)[GlcNAc(b1-6)]Man(a1-6)]Man(b1-4)GlcNAc(b1-4)GlcNAc
# Summary of the method: as §1
# [20] = target: GlcNAc(b1-2)[GlcNAc(b1-4)]Man(a1-3)[GlcNAc(b1-4)][GlcNAc(b1-2)[GlcNAc(b1-6)]Man(a1-6)]Man(b1-4)GlcNAc(b1-4)[Fuc(a1-6)]GlcNAc
# Summary of the method: as §1
# [21] = target: GlcNAc(b1-2)[GlcNAc(b1-6)]Man(a1-6)[GlcNAc(b1-2)Man(a1-3)]Man(b1-4)GlcNAc(b1-4)GlcNAc
# Summary of the method: as §1
# [22] = target: GlcNAc(b1-2)[GlcNAc(b1-6)]Man(a1-6)[GlcNAc(b1-2)Man(a1-3)]Man(b1-4)GlcNAc(b1-4)[Fuc(a1-6)]GlcNAc
# Summary of the method: as §1
# [23] = target: GlcNAc(b1-2)[GlcNAc(b1-6)]Man(a1-6)[GlcNAc(b1-4)][GlcNAc(b1-2)Man(a1-3)]Man(b1-4)GlcNAc(b1-4)GlcNAc
# Summary of the method: as §1
# GlcNAc(b1-3)Fuc = target: GlcNAc(b1-3)Fuc
# Summary of the method: as §1
# GlcNAc(b1-3)Gal = target: GlcNAc(b1-3)Gal
# Summary of the method: as §1
# [24] = target: GlcNAc(b1-3)Gal(b1-3)GalNAc
# Summary of the method: as §1
# GlcNAc(b1-3)Gal(b1-4)Glc = target: GlcNAc(b1-3)Gal(b1-4)Glc
# Summary of the method: as §1
# [25] = target: GlcNAc(b1-3)Gal(b1-4)GlcNAc
# Summary of the method: as §1
# [26] = target: GlcNAc(b1-3)Gal(b1-4)GlcNAc(b1-2)Man(a1-3)[GlcNAc(b1-3)Gal(b1-4)GlcNAc(b1-2)Man(a1-6)]Man(b1-4)GlcNAc(b1-4)GlcNAc
# Summary of the method: as §1
# [27] = target: GlcNAc(b1-3)Gal(b1-4)GlcNAc(b1-2)Man(a1-3)[GlcNAc(b1-3)Gal(b1-4)GlcNAc(b1-2)Man(a1-6)]Man(b1-4)GlcNAc(b1-4)[Fuc(a1-6)]GlcNAc
# Summary of the method: as §1
# [28] = target: GlcNAc(b1-3)Gal(b1-4)GlcNAc(b1-2)[GlcNAc(b1-3)Gal(b1-4)GlcNAc(b1-6)]Man(a1-6)[GlcNAc(b1-3)Gal(b1-4)GlcNAc(b1-2)Man(a1-3)]Man(b1-4)GlcNAc(b1-4)GlcNAc
# Summary of the method: as §1
# [29] = target: GlcNAc(b1-3)Gal(b1-4)GlcNAc(b1-3)Gal(b1-4)GlcNAc
# Summary of the method: as §1
# [30] = target: GlcNAc(b1-3)Gal(b1-4)GlcNAc(b1-3)Gal(b1-4)GlcNAc(b1-2)Man(a1-3)[GlcNAc(b1-3)Gal(b1-4)GlcNAc(b1-3)Gal(b1-4)GlcNAc(b1-2)Man(a1-6)]Man(b1-4)GlcNAc(b1-4)GlcNAc
# Summary of the method: as §1
# [31] = target: GlcNAc(b1-3)Gal(b1-4)GlcNAc(b1-3)Gal(b1-4)GlcNAc(b1-2)Man(a1-3)[GlcNAc(b1-3)Gal(b1-4)GlcNAc(b1-3)Gal(b1-4)GlcNAc(b1-2)Man(a1-6)]Man(b1-4)GlcNAc(b1-4)[Fuc(a1-6)]GlcNAc
# Summary of the method: as §1
# [32] = target: GlcNAc(b1-3)Gal(b1-4)GlcNAc(b1-3)Gal(b1-4)GlcNAc(b1-2)[GlcNAc(b1-3)Gal(b1-4)GlcNAc(b1-3)Gal(b1-4)GlcNAc(b1-6)]Man(a1-6)[GlcNAc(b1-3)Gal(b1-4)GlcNAc(b1-3)Gal(b1-4)GlcNAc(b1-2)Man(a1-3)]Man(b1-4)GlcNAc(b1-4)[Fuc(a1-6)]GlcNAc
# Summary of the method: as §1
# [33] = target: GlcNAc(b1-3)Gal(b1-4)GlcNAc(b1-3)Gal(b1-4)GlcNAc(b1-3)Gal(b1-4)GlcNAc(b1-2)Man(a1-3)[GlcNAc(b1-3)Gal(b1-4)GlcNAc(b1-3)Gal(b1-4)GlcNAc(b1-3)Gal(b1-4)GlcNAc(b1-2)Man(a1-6)]Man(b1-4)GlcNAc(b1-4)GlcNAc
# Summary of the method: as §1
# [34] = target: GlcNAc(b1-3)Gal(b1-4)GlcNAc(b1-3)Gal(b1-4)GlcNAc(b1-3)Gal(b1-4)GlcNAc(b1-2)Man(a1-3)[GlcNAc(b1-3)Gal(b1-4)GlcNAc(b1-3)Gal(b1-4)GlcNAc(b1-3)Gal(b1-4)GlcNAc(b1-2)Man(a1-6)]Man(b1-4)GlcNAc(b1-4)[Fuc(a1-6)]GlcNAc
# Summary of the method: as §1
# [35] = target: GlcNAc(b1-3)Gal(b1-4)GlcNAc(b1-3)Gal(b1-4)GlcNAc(b1-3)Gal(b1-4)GlcNAc(b1-2)[GlcNAc(b1-3)Gal(b1-4)GlcNAc(b1-3)Gal(b1-4)GlcNAc(b1-3)Gal(b1-4)GlcNAc(b1-6)]Man(a1-6)[GlcNAc(b1-3)Gal(b1-4)GlcNAc(b1-3)Gal(b1-4)GlcNAc(b1-3)Gal(b1-4)GlcNAc(b1-2)Man(a1-3)]Man(b1-4)GlcNAc(b1-4)[Fuc(a1-6)]GlcNAc
# Summary of the method: as §1
# [36] = target: GlcNAc(b1-3)Gal(b1-4)GlcNAc(b1-3)Gal(b1-4)GlcNAc(b1-3)Gal(b1-4)GlcNAc(b1-3)Gal(b1-4)GlcNAc(b1-2)Man(a1-3)[GlcNAc(b1-3)Gal(b1-4)GlcNAc(b1-3)Gal(b1-4)GlcNAc(b1-3)Gal(b1-4)GlcNAc(b1-3)Gal(b1-4)GlcNAc(b1-2)Man(a1-6)]Man(b1-4)GlcNAc(b1-4)GlcNAc
# Summary of the method: as §1
# [37] = target: GlcNAc(b1-3)Gal(b1-4)GlcNAc(b1-3)Gal(b1-4)GlcNAc(b1-3)Gal(b1-4)GlcNAc(b1-3)Gal(b1-4)GlcNAc(b1-2)Man(a1-3)[GlcNAc(b1-3)Gal(b1-4)GlcNAc(b1-3)Gal(b1-4)GlcNAc(b1-3)Gal(b1-4)GlcNAc(b1-3)Gal(b1-4)GlcNAc(b1-2)Man(a1-6)]Man(b1-4)GlcNAc(b1-4)[Fuc(a1-6)]GlcNAc
# Summary of the method: as §1
# [38] = target: GlcNAc(b1-3)Gal(b1-4)GlcNAc(b1-3)Gal(b1-4)GlcNAc(b1-3)Gal(b1-4)GlcNAc(b1-3)Gal(b1-4)GlcNAc(b1-2)[GlcNAc(b1-3)Gal(b1-4)GlcNAc(b1-3)Gal(b1-4)GlcNAc(b1-3)Gal(b1-4)GlcNAc(b1-3)Gal(b1-4)GlcNAc(b1-6)]Man(a1-6)[GlcNAc(b1-3)Gal(b1-4)GlcNAc(b1-3)Gal(b1-4)GlcNAc(b1-3)Gal(b1-4)GlcNAc(b1-3)Gal(b1-4)GlcNAc(b1-2)Man(a1-3)]Man(b1-4)GlcNAc(b1-4)[Fuc(a1-6)]GlcNAc
# Summary of the method: as §1
binder,measurement,setting,value
"MPA (Maclura pomifera), P18674 (protein) GVTFDDGAYTGIREINFEYNSETAIGGLRVTYDLNGMPFVAEDHKSFITGFKPVKISLEFPSEYIVEVSGYVGKVEGYTVIRSLTFKTNKQTYGPYGVTNGTPFSLPIENGLIVGFKGSIGYWLDYFSIYLSL",glycan array binding signal (z-score),Glc(b1-6)Glc,-0.208
same,glycan array binding signal (z-score),GlcA(b1-3)Gal,-0.187
same,glycan array binding signal (z-score),GlcA(b1-3)GlcNAc,-0.122
same,glycan array binding signal (z-score),GlcA(b1-6)Gal,-0.218
same,glycan array binding signal (z-score),[1],-0.571
same,glycan array binding signal (z-score),[2],-0.252
same,glycan array binding signal (z-score),[3],-0.191
same,glycan array binding signal (z-score),[4],-0.235
same,glycan array binding signal (z-score),[5],-0.276
same,glycan array binding signal (z-score),[6],-0.238
same,glycan array binding signal (z-score),[7],-0.372
same,glycan array binding signal (z-score),[8],-0.278
same,glycan array binding signal (z-score),[9],-0.184
same,glycan array binding signal (z-score),[10],-0.148
same,glycan array binding signal (z-score),[11],-0.263
same,glycan array binding signal (z-score),[12],-0.159
same,glycan array binding signal (z-score),[13],-0.231
same,glycan array binding signal (z-score),[14],-0.08
same,glycan array binding signal (z-score),[15],-0.296
same,glycan array binding signal (z-score),[16],-0.195
same,glycan array binding signal (z-score),[17],-0.179
same,glycan array binding signal (z-score),[18],-0.226
same,glycan array binding signal (z-score),[19],-0.261
same,glycan array binding signal (z-score),[20],-0.299
same,glycan array binding signal (z-score),[21],-0.22
same,glycan array binding signal (z-score),[22],-0.266
same,glycan array binding signal (z-score),[23],-0.327
same,glycan array binding signal (z-score),GlcNAc(b1-3)Fuc,-0.053
same,glycan array binding signal (z-score),GlcNAc(b1-3)Gal,-0.067
same,glycan array binding signal (z-score),[24],0.154
same,glycan array binding signal (z-score),GlcNAc(b1-3)Gal(b1-4)Glc,-0.192
same,glycan array binding signal (z-score),[25],-0.233
same,glycan array binding signal (z-score),[26],-0.201
same,glycan array binding signal (z-score),[27],1.06
same,glycan array binding signal (z-score),[28],5.1
same,glycan array binding signal (z-score),[29],-0.233
same,glycan array binding signal (z-score),[30],3.5
same,glycan array binding signal (z-score),[31],2.23
same,glycan array binding signal (z-score),[32],2.05
same,glycan array binding signal (z-score),[33],0.656
same,glycan array binding signal (z-score),[34],5.73
same,glycan array binding signal (z-score),[35],4.46
same,glycan array binding signal (z-score),[36],0.09
same,glycan array binding signal (z-score),[37],-0.071
same,glycan array binding signal (z-score),[38],0.56
